{"source": "paper PMC4336329", "about": "(PLoS ONE, 2015)", "note": "Among all 310,000 compounds or so, about 14,000 (4.5%) showed an effect of 50% or more. The effect is printed as a negative number. This is one part of the list.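 Note: peak tail current of the secondary pulse compared with the same well before compound.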", "data": [{"target": "human ether-à-go-go-related gene (hERG) potassium channel (human, UniProt Q12809)", "sequence (Q12809 whole entry, looked up)": "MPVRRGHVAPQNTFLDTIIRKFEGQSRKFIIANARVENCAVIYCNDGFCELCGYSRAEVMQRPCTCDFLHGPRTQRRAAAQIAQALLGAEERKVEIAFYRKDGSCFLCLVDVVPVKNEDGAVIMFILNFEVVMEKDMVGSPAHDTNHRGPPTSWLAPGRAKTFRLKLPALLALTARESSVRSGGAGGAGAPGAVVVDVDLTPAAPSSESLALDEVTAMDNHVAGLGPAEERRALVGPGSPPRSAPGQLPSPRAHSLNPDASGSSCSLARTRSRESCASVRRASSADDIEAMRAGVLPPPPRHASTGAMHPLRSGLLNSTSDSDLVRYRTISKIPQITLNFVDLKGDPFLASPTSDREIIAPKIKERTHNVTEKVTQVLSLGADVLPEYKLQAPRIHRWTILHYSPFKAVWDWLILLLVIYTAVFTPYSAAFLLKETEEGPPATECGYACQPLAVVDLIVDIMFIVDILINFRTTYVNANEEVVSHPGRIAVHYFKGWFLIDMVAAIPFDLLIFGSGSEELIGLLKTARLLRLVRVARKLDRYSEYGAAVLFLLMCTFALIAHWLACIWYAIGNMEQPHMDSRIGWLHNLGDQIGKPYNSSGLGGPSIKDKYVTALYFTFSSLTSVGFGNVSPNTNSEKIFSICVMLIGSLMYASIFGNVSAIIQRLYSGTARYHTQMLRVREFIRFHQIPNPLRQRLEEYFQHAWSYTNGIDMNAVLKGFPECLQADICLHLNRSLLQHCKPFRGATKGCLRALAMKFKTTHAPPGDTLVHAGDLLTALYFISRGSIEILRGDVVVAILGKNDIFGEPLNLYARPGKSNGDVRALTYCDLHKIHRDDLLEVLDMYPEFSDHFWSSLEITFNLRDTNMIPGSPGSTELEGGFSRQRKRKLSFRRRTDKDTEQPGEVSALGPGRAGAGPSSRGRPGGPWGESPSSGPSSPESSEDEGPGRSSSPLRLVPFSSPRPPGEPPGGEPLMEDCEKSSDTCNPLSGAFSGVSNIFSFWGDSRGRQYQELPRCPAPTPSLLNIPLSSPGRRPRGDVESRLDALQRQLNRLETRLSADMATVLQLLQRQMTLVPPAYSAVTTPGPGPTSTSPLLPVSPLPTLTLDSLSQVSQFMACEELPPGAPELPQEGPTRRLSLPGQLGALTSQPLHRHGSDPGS", "experiment": "primary screen, population patch clamp on CHO cells stably expressing hERG", "units": {"hERG current change (%, negative = inhibition) at 10uM": "%"}, "values": [{"smiles": "COc1cc(-c2nnc(COC(=O)CSc3cc(C)c4ccccc4n3)o2)cc(OC)c1OC", "hERG current change (%, negative = inhibition) at 10uM": -0.253}, {"smiles": "O=C1C=C(c2cccc(CO)c2)C[C@@H](c2ccc3c(c2)OCO3)C1", "hERG current change (%, negative = inhibition) at 10uM": -18.7}, {"smiles": "CC1CN(C(=O)c2ccccc2)OC(c2ccc3c(c2)OCO3)O1", "note": "(centres unmarked)", "hERG current change (%, negative = inhibition) at 10uM": -13.7}, {"smiles": "O=C(CN1C(=O)c2ccccc2C1=O)Nc1cc([N+](=O)[O-])ccc1O", "hERG current change (%, negative = inhibition) at 10uM": 16.2}, {"smiles": "CCOc1ccc(N(C(C)C(=O)NC2CCCCCC2)S(C)(=O)=O)cc1", "note": "(centres unmarked)", "hERG current change (%, negative = inhibition) at 10uM": -1.85}, {"smiles": "C=C(C)Cn1c(SCC(=O)N/N=C/c2ccccc2)nc2ccccc2c1=O", "hERG current change (%, negative = inhibition) at 10uM": 7.5}, {"smiles": "CC(=O)c1ccc(N(C(=O)c2ccco2)C(C(=O)NC2CCCC2)c2ccc(N3CCOCC3)cc2)cc1", "note": "(centres unmarked)", "hERG current change (%, negative = inhibition) at 10uM": -15.2}, {"smiles": "CCOc1ccc2[nH]c(=O)c(C(c3nnnn3C3CCCCC3)N3CCN(C)CC3)cc2c1", "note": "(centres unmarked)", "hERG current change (%, negative = inhibition) at 10uM": -19.8}, {"smiles": "CCOc1ccc2[nH]c(S(=O)(=O)CC)nc2c1Cl", "hERG current change (%, negative = inhibition) at 10uM": 17.3}, {"smiles": "COc1ccccc1OCCn1c(C(C)O)nc2ccccc21", "note": "(centres unmarked)", "hERG current change (%, negative = inhibition) at 10uM": 7.4}, {"smiles": "COc1ccc(/C=C(/C#N)C(=O)Nc2cc(C)ccc2C)cc1C(=O)O", "hERG current change (%, negative = inhibition) at 10uM": 4.23}, {"smiles": "Cc1cc(NC(=O)c2ccc(C)o2)no1", "hERG current change (%, negative = inhibition) at 10uM": 17.8}, {"smiles": "Cc1ccc2[nH]c(=O)c(CN(CCCN3CCOCC3)C(=O)NC3CCCCC3)cc2c1", "hERG current change (%, negative = inhibition) at 10uM": -25.7}, {"smiles": "Cc1c(CCC(=O)N[C@@H](C)C(=O)O)c(=O)oc2cc3occ(-c4ccccc4)c3cc12", "hERG current change (%, negative = inhibition) at 10uM": -1.45}, {"smiles": "Cc1cc([N+](=O)[O-])ccc1NC(=O)c1cncc(Br)c1", "hERG current change (%, negative = inhibition) at 10uM": -12.5}, {"smiles": "O=C(N[C@@H](Cc1ccccc1)C(=O)OCc1ccccc1)c1nc[nH]c1C(=O)N1CCN(c2ccccc2)CC1", "hERG current change (%, negative = inhibition) at 10uM": 3.18}, {"smiles": "CC1CCC/C(=N/Nc2ccc([N+](=O)[O-])cc2[N+](=O)[O-])C1", "note": "(centres unmarked)", "hERG current change (%, negative = inhibition) at 10uM": -17.6}, {"smiles": "COc1ccc(NC(=S)N(CCC(C)C)C2CCN(C(C)C)CC2)cc1Cl", "hERG current change (%, negative = inhibition) at 10uM": -68.1}, {"smiles": "O=C(c1ccccc1)C1CCN(C(=O)Nc2ccccc2)CC1", "hERG current change (%, negative = inhibition) at 10uM": -2.26}, {"smiles": "Cc1[nH]nc(N)c1N=Nc1ccc(Br)cc1", "hERG current change (%, negative = inhibition) at 10uM": 13.1}, {"smiles": "CCN(c1cccc(C)c1)C(C(=O)Nc1ccc(OC)cc1)c1cc2c(cc1[N+](=O)[O-])OCO2", "note": "(centres unmarked)", "hERG current change (%, negative = inhibition) at 10uM": 21.1}, {"smiles": "COc1ccccc1CNC(=O)c1ccc(OC(F)F)c(OC)c1", "hERG current change (%, negative = inhibition) at 10uM": -32.1}, {"smiles": "Cc1[nH]c2ccc(C(=O)NCCCN3CCCC3)cc2c1C", "hERG current change (%, negative = inhibition) at 10uM": 9.34}, {"smiles": "CCOC(=O)CCNC(=O)Nc1ccc2nc(C)n(Cc3ccccc3Cl)c(=O)c2c1", "hERG current change (%, negative = inhibition) at 10uM": -1.79}, {"smiles": "O=C(CN1C(=O)c2ccccc2C1=O)c1ccccc1", "hERG current change (%, negative = inhibition) at 10uM": 7.95}, {"smiles": "O=S(=O)(/C=C/c1ccccc1)n1cnc2ccccc21", "hERG current change (%, negative = inhibition) at 10uM": 4.46}, {"smiles": "CCOC(=O)c1[nH]c(C)c(C(=O)N2CCN(c3ccc(F)cc3)CC2)c1C", "hERG current change (%, negative = inhibition) at 10uM": -7.49}, {"smiles": "Cc1cc(C)nc(SCC(=O)NC2=NN=C(c3ccc(Br)cc3)CS2)n1", "hERG current change (%, negative = inhibition) at 10uM": -4.44}, {"smiles": "COc1ccccc1/C=C/C=N/NC(=O)c1cccs1", "hERG current change (%, negative = inhibition) at 10uM": 6.69}, {"smiles": "CCCS(=O)(=O)N1CCCC(C(=O)Oc2ccc(C)c(C)c2)C1", "note": "(centres unmarked)", "hERG current change (%, negative = inhibition) at 10uM": 11.6}, {"smiles": "CCOC(=O)C1CCCN(c2c(N3CCN(C)CC3)c(=O)c2=O)C1", "note": "(centres unmarked)", "hERG current change (%, negative = inhibition) at 10uM": 8.41}, {"smiles": "CCN(CC(=O)Nc1cc(Cl)ccc1C)C(=O)C1CC1", "hERG current change (%, negative = inhibition) at 10uM": 7.6}, {"smiles": "CCc1cc2c(=O)c(Oc3ccccc3F)c(C)oc2c(CN(C)C)c1O", "hERG current change (%, negative = inhibition) at 10uM": 4.47}, {"smiles": "CC1=C(C#N)C(=O)NC(C)(C)C1", "hERG current change (%, negative = inhibition) at 10uM": 15.6}, {"smiles": "CCCCC(=O)NNC(=S)NC(=O)c1ccc([N+](=O)[O-])cc1", "hERG current change (%, negative = inhibition) at 10uM": 9.04}, {"smiles": "CCc1ccc(S(=O)(=O)N/N=C(/C)c2ccncc2)cc1", "hERG current change (%, negative = inhibition) at 10uM": -20.1}, {"smiles": "NNC(=O)c1ccc([N+](=O)[O-])c(CS(=O)(=O)c2ccc(Cl)cc2)c1", "hERG current change (%, negative = inhibition) at 10uM": -23}, {"smiles": "CC(=O)Nc1ccc(S(=O)(=O)N2CCN=C2SCc2cccc(C)c2)cc1", "hERG current change (%, negative = inhibition) at 10uM": -15.5}, {"smiles": "CCC(=O)N1CCN(c2ccc(NC(=O)c3ccc(N4CCCC4)c([N+](=O)[O-])c3)cc2)CC1", "hERG current change (%, negative = inhibition) at 10uM": 7.43}, {"smiles": "COc1ccc(N2CCN(C3CCCN(Cc4cccc(OC)c4)C3)CC2)cc1", "note": "(centres unmarked)", "hERG current change (%, negative = inhibition) at 10uM": -64.4}, {"smiles": "CC(C)Oc1ccc(C(=O)N2CCCC2C(=O)O)cc1", "note": "(centres unmarked)", "hERG current change (%, negative = inhibition) at 10uM": 12.2}, {"smiles": "COCc1cc(C)c2c(N)c(C#N)sc2n1", "hERG current change (%, negative = inhibition) at 10uM": -3.95}, {"smiles": "CCCOP(=O)(c1ccc(N(C)C)cc1)C(O)c1ccc(Br)cc1", "note": "(centres unmarked)", "hERG current change (%, negative = inhibition) at 10uM": -2.71}, {"smiles": "Cc1csc(NC(=O)c2ccc(S(C)(=O)=O)cc2)n1", "hERG current change (%, negative = inhibition) at 10uM": -5.37}]}]}
